From PubChem BioAssay (NCI)
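Cultured in 96-well plates, cells were exposed to test compound for 48 hours across five concentrations. GI50 is the concentration that inhibits growth by half. TGI denotes the concentration required for complete inhibition of growth.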

System: NCI-H322M lung
Test: DTP human tumour cell line panel, 48 h

`Oc1ccc(-c2nnc(SCc3ccc(O)c4ncccc34)n2-c2ccccc2)cc1` was tested, and the GI50 was 524 nM and the TGI was greater than 100000 nM.
